Measured values taken from PubChem BioAssay AID2675 (National Center for Advancing Translational Sciences (NCATS), 2010).
About 100 (0.036%) of roughly 280,000 compounds were called active. Inconclusive means that the source gave no clear call. Such entries were picked first, then a sample of the others. Calls come from the whole dose curve; as a rule, active = well fitted inhibition curve with a large enough effect in the signal ratio, with a control signal flat (not every such curve was filed as active); inconclusive = small, poorly fitted or top-dose-only effect, or effect the other way, or a change in a side signal; inactive = no such curve, though single readings can be large or run the other way; the % refers to the signal ratio. A potency beside an inconclusive call is a rough fit, not a confirmed value. A note “side channel” means that the fit belongs to a control or component signal, not to the main read-out.

biological target: Muscleblind-like protein 1 (Homo sapiens) (UniProt Q9NR56); assay: qHTS Assay for Inhibitors of MBNL1-poly(CUG) RNA binding; conditions: TR-FRET MBNL1-His/biotin-(CUG)12 binding, 665/545 ratio; activity change, negative = inhibition: at 57.5 µM (top of the series)
Sequence of UniProt Q9NR56 (Q9NR56 whole entry, looked up): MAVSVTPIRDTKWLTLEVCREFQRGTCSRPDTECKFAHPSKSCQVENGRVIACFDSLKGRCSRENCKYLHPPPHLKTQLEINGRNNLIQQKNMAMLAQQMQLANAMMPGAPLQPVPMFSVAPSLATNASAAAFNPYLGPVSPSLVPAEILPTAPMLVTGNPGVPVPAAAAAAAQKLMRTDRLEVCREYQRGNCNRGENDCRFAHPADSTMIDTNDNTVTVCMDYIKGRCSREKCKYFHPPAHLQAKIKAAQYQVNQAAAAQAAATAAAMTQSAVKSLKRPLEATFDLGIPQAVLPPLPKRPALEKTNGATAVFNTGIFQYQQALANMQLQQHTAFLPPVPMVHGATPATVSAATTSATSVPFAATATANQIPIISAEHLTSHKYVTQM
Outline: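 Ratiometric TR-FRET (665 over 545 nm, excitation 340 nm) tracks disruption of MBNL1-His/biotin-(CUG)12 complex after 60 min at room temperature, with compounds at 92 nM to 58 uM final.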
% is set by controls: 0 for no effect and ±100 for the full control effect; potency is the fitted concentration of half-maximal effect; tags give direction and shape of the fitted curve or compound fluorescence and quenching.

Row | Structure (SMILES) | Potency | activity change, negative = inhibition
1 | CCOc1ccc(-c2cc(C(=O)NN3CCN(C)CC3)c3cc(Cl)ccc3n2)cc1 | inconclusive: 0.1 µM [fluorescent, side channel, full curve] | 
2 | CCOC(=O)c1ccc(N2C(=O)C(C)=C(C)C2=O)cc1 | inconclusive: 14.1 µM [quencher, side channel, partial curve] | 
3 | CC1(C)CC(NC(=S)Nc2ccc([N+](=O)[O-])cc2)CC(C)(C)N1 | inconclusive: 17.8 µM [quencher, side channel, partial curve] | 
4 | Cc1c(CCOC(=O)c2cccc([N+](=O)[O-])c2)sc[n+]1CC(=O)c1ccccc1 | inconclusive: 22.4 µM [quencher, side channel, partial curve] | 
5 | O=C(NCc1cccs1)c1cc(C2CC2)on1 | inactive | 
6 | Cc1ccc(S(=O)(=O)Cn2cnnn2)cc1 | inactive | 
7 | O=C(N/N=C/c1cc2c(cc1[N+](=O)[O-])OCO2)c1ccc2c(c1)OCO2 | inconclusive: 3.16 µM [quencher, side channel, full curve] | 
8 | Cc1ccccc1CNC(=O)Cc1ccccc1[N+](=O)[O-] | inconclusive: 25.1 µM [quencher, side channel, partial curve] | 
9 | O=[N+]([O-])c1ccc(N2CCN(C(=S)Nc3ccc(F)cc3F)CC2)cc1 | inconclusive: 17.8 µM [quencher, side channel, partial curve] | 
10 | COc1ccc(NC(=O)CCCn2c(=O)[nH]c3ccccc3c2=O)cc1 | inactive | 
11 | CCc1ccccc1NC(=O)C1CCN(C(=O)c2ccc([N+](=O)[O-])cc2)CC1 | inconclusive: 15.8 µM [quencher, side channel, partial curve] | 
12 | CC(C)Cn1c(SCC(=O)c2c(N)n(C)c(=O)n(C)c2=O)nc2ccccc21 | inactive | 
13 | O=C(OCCN=C1NS(=O)(=O)c2ccccc21)c1cccc([N+](=O)[O-])c1 | inconclusive: 14.1 µM [quencher, side channel, partial curve] | 
14 | COc1ccc(/C=N/NC(=O)c2cccnc2)cc1CN1CCN(c2ccc(F)cc2)CC1 | inconclusive: 501 µM [inhibitor, partial curve] | 
15 | CCOC(=O)C1(Cc2cccc(OC)c2)CCN(Cc2cccn2-c2nccs2)CC1 | inactive | 
16 | CCOC(=O)c1cc(-c2ccccc2)sc1NC(=O)c1ccc(OC)c(OC)c1 | inactive | 
17 | C=CCN1C(=O)[C@@H]2Cc3c([nH]c4ccccc34)C(c3cc(OC)c(OC)c(OC)c3)N2C1=S (stereo partly drawn) | inactive | 
18 | COc1cccc(CNC(=O)CCS(=O)(=O)c2cccc3nonc23)c1 | inconclusive: 10 µM [quencher, side channel, partial curve] | 
19 | CCOC(=O)CCCCC(=O)c1[nH]c(=O)[nH]c1CSc1nc(-c2ccccc2)c(C#N)c(=O)[nH]1 | active: 7.08 µM | 

Row | Structure (SMILES) | Potency | activity change, negative = inhibition
20 | OCCCc1nc2n(n1)C(c1cccs1)C=C(c1ccc(Br)cc1)N2 (stereo not drawn) | inconclusive: 15.8 µM [quencher, side channel, single point] | 
21 | CCN1/C(=C/c2ccc3cccc(C)c3[n+]2CC)Sc2ccccc21 | inconclusive: 7.94 µM [quencher, side channel, partial curve] | 
22 | COc1cc(/C=C(/C#N)C(=O)NC(C)c2ccccc2)cc(OC)c1O (stereo not drawn) | inconclusive: 28.2 µM [quencher, side channel, single point] | 
23 | COc1ccc(/C=C/C(=O)Nc2nc(C)cc(C)n2)cc1OC | inconclusive: 14.1 µM [quencher, side channel, partial curve] | 
24 | COc1cc(/C=C2\SC(c3ccc(C)cc3)=NC2=O)ccc1O | inconclusive: 20 µM [quencher, side channel, partial curve, poor fit] | 
25 | O=C(N/N=C/c1ccc(O)cc1O)C(=O)N/N=C/c1ccc(O)cc1O | inactive | 
26 | Cc1ccc(Oc2nc3ccccn3c(=O)c2/C=C(\C#N)C(=O)Nc2c(C)n(C)n(-c3ccccc3)c2=O)cc1 | inconclusive: 0.126 µM [quencher, side channel, full curve, poor fit] | 
27 | Cc1ccc(-c2nnn(CC(=O)N(Cc3ccccc3F)C(C(=O)NC3CCCC3)c3ccncc3)n2)o1 (stereo not drawn) | inconclusive: 8.91 µM [quencher, side channel, single point] | 
28 | COC(=O)/C(C#N)=C/c1ccc(N2CCOCC2)c([N+](=O)[O-])c1 | inconclusive: 14.1 µM [quencher, side channel, partial curve] | 
29 | Cc1ccc(-n2cc(CNC(C)c3cnn(C)c3C)c(-c3ccc(F)cc3)n2)cc1 (stereo not drawn) | inactive | 
30 | O=C(NN=C1c2ccccc2-c2ccccc21)c1ccccc1 | inactive | 
31 | CN(NC(=S)Nc1ccc(OC(F)F)cc1)C(=S)Nc1ccc(OC(F)F)cc1 |  | inconclusive: -8.25% [phenotype inactive]
32 | CCOc1ccc(NC(=S)NC(=O)c2c(Cl)cnn2CC)c([N+](=O)[O-])c1 | inconclusive: 11.2 µM [quencher, side channel, partial curve] | 
33 | COc1cccc(N2CCN(C(=S)Nc3ccccc3)CC2)c1 | inactive | 
34 | Cc1c(NC(=O)c2ccc(-c3ccc([N+](=O)[O-])cc3Cl)o2)c(=O)n(-c2ccccc2)n1C | inconclusive: 11.2 µM [quencher, side channel, partial curve] | 
35 | CC(=O)Nc1ccc(NC(=O)c2cc(=O)c3cc(C)c(C)cc3o2)cc1 | inconclusive: 4.47 µM [quencher, side channel, single point] | 
36 | C=CCNC(=O)c1cc2c(=O)n3ccccc3nc2s1 | inconclusive: 12.6 µM [quencher, side channel, partial curve] | 
37 | O=C(CN1C(=O)CCS(=O)(=O)c2ccccc21)Nc1cccc(Cl)c1 | inconclusive: 39.8 µM [quencher, side channel, single point] | 
38 | Cc1ccc(N=c2c([N+](=O)[O-])nn(-c3ccc(Cl)cc3)n2O)cc1C | inconclusive: 15.8 µM [quencher, side channel, partial curve] | 
